# Assay results taken from PubChem BioAssay AID1508642 (National Center for Advancing Translational Sciences (NCATS), 2021).
# About 200 (0.47%) of roughly 43,000 compounds were called active. Roughly 12% stayed inconclusive and do not appear here. Calls come from the whole dose curve; as a rule, active = well fitted cell-killing curve with a large enough effect; inconclusive = small, poorly fitted or top-dose-only effect, or effect the other way; inactive = flat fitted curve, though single readings scatter. The list shows a part of the results.
# Assay: Cell viability qHTS assay in S16 Pmp22-F2sN cells; note: nearly all actives have a fitted effect of over 65% in size
# Conditions: S16 Pmp22-F2sN Schwann cells viability, CellTiter-Glo, 24 h; series mostly up to 57.5 µM; activity change, negative = cytotoxicity: at the top concentration
# Summary of the method: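 Used to flag compounds lowering reporter output through toxicity, this quantitative HTS measures ATP-based CellTiter-Glo luminescence in S16 Pmp22-F2sN Schwann cells after 24 h compound exposure at 37C.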
# % is set by controls: 0 for no effect and ±100 for the full control effect.
row,SMILES,"activity change, negative = cytotoxicity"
1,CC(C)Oc1ccc(CNC(=O)C2CCN(C(=O)N3CC(C)Oc4ccccc43)CC2)cc1 (configuration not stated),inactive: 3.77%
2,CC(=O)c1cc(-c2ccccc2)n(CC(=O)NCCc2ccc(C)cc2)c1C,inactive: 3.23%
3,FC(F)(F)c1cc(-c2cccc(Br)c2)nc2ncnn12,inactive: 6.68%
4,COc1ccc(-c2csc3nc(-c4ccccc4)oc(=O)c23)cc1OC,inactive: 11.8%
5,O=C(NC1CCCCC1)c1ccc(CSc2nc3ccncc3n2Cc2ccccc2F)cc1,inactive: -12.6%
6,COc1ccc(NC(=O)CSc2nc(-c3cccs3)cc(C(F)(F)F)n2)c(OC)c1,inactive: -4.15%
7,COCCCNC(=O)c1ccc2c(c1)nc1n2CCCCC1,inactive: 6.29%
8,CCOc1ccc2nc(N3CCC(C(=O)Nc4cc(C)ccc4C)CC3)sc2c1,inactive: 0.128%
9,Cc1noc(Cn2c(=O)c3cc4c(cc3n(CC(=O)Nc3ccccc3F)c2=O)OCO4)n1,inactive: 4.19%
10,CCN(CC)CCCNC(=O)CSc1nc(-c2ccc(OC)cc2)cc(C(F)(F)F)n1,inactive: -17.4%
11,O=C(CSCc1cnn(-c2ccccc2)c1-n1cccc1)NCc1ccc(F)cc1,inactive: -8.81%
12,CCc1ccc(NC(=O)CSc2ccc(-c3cccs3)nn2)cc1,inactive: 8.55%
13,CCCCN(CC)C(=O)C1CCCN(c2ncnc3c2nc2n3CCCCC2)C1 (configuration not stated),inactive: -14.9%
14,CCOc1ccc(CNC(=O)CCn2c(=O)c3cccn3c3ccc(F)cc32)cc1,inactive: -2.95%
15,CCOC(=O)c1ccc(NC(=O)c2ccc(CN3C(=O)CCn4nc(C)cc43)cc2)cc1,inactive: 5.39%
16,O=C(CSc1nc2ccsc2c(=O)n1-c1ccc(Br)cc1)NCc1ccccc1,inactive: 4.04%
17,Cc1ccccc1Cn1cnc2nc3c(cc2c1=O)CC(C)CC3 (configuration not stated),inactive: 3.09%
18,CCc1cccc(C)c1NC(=O)CCCn1nc(C)c2sc3ccccc3c2c1=O,inactive: 1.07%
19,Cc1cc(N2CCCCC2)nc2ccc(NC(=O)/C=C/c3ccc(OCCC(C)C)cc3)cc12,inactive: -7.45%
20,O=C(NCc1nc2ccccc2[nH]1)c1cccc(Cl)c1,inactive: -1.75%
21,O=C(Cn1c(=O)c2ccccc2n2nncc12)Nc1cccc(F)c1,inactive: 27.6%

row,SMILES,"activity change, negative = cytotoxicity"
1,CC1CCN(c2ccc(-c3nc(-c4ccccc4)no3)cc2[N+](=O)[O-])CC1,inactive: 8%
2,CCOC(=O)c1c(C)[nH]c(C)c1S(=O)(=O)N(C)CC(=O)NCc1cccc(Br)c1,inactive: -9.11%
3,COc1ccc(NC(=O)NCCn2nnc3cc(S(=O)(=O)N(C)C)ccc32)cc1,inactive: -24%
4,Cc1ccc2c(CNC3CCCC3)c(C(=O)O)n(Cc3ccc(F)cc3)c2c1,inactive: 16.2%
5,CN(C(=O)CSc1nc2ccccc2n1CC(=O)N(C)C1CCCCC1)c1ccccc1,inactive: 7.73%
6,CCOC(=O)C1CCCN(C(=O)c2ccc3c(c2)N(Cc2ccc(Cl)cc2)C(=O)c2ccccc2S3=O)C1 (configuration not stated),inactive: 21.4%
7,Cc1noc(/C=C/c2ccccc2F)c1S(=O)(=O)N1CCC(C(=O)Nc2ccc(C#N)cc2)CC1,inactive: -4.45%
8,CCCCNC(=O)CCn1c(=O)c2ccccc2n(Cc2cccc(Cl)c2)c1=O,inactive: 18.7%
9,Cc1cccc(NC(=O)CN2C(=O)CCn3nc(-c4cccn4C)cc32)c1C,inactive: -7.63%
10,COc1ccc(NC(=O)C2CCN(S(=O)(=O)c3cc(-c4noc(C)n4)ccc3C)CC2)cc1,inactive: -4.93%
11,Cc1ccc(C)c(NC(=O)c2cc(S(=O)(=O)NCCc3ccccc3)ccc2F)c1,inactive: -18.5%
12,Cc1ccc(OCC(=O)Nc2nnc(SCc3cc(=O)c4ccccc4[nH]3)s2)cc1C,inactive: 9.08%
13,COc1ccccc1C(=O)n1nc(-c2cccnc2)nc1NCc1ccccc1,inactive: 1.49%
14,Cc1ccc(Cl)cc1NC(=O)c1ccc(NC(=O)N2CCSc3ncccc32)cc1,inactive: -19.3%
15,Cc1cccc(-c2nc3c4ccccc4nc(N4CCN(c5ccc(F)cc5)CC4)n3n2)c1,inactive: 13%
16,O=C(CCCc1ccccc1)NC1CC(=O)N(c2ccc(Cl)cc2)C1 (configuration not stated),inactive: -5.43%
17,CC1=C(c2ccc(C(C)C)cc2)S(=O)(=O)N=C1N1CCN(c2ccc(F)cc2)CC1,inactive: -5.5%
18,CC1=Nc2cc(C(=O)NC3CCCCC3)ccc2Sc2ccc(Cl)cc21,inactive: -5.86%
19,COc1ccc(NC(=O)c2coc(=O)c3ccccc23)cc1OC,inactive: -12.3%
20,CCc1ccccc1NC(=O)Cn1nnc(-c2nc(-c3ccncc3)no2)c1N,inactive: 1.25%
21,COc1cc(NS(=O)(=O)c2ccc3c(c2)CC(=O)N3)cc(OC)c1OC,inactive: -17.1%

row,SMILES,"activity change, negative = cytotoxicity"
1,Cc1ccc(NC(=O)C2CCN(S(=O)(=O)c3ccc4c(c3)CCCC(=O)N4)CC2)c(Cl)c1,inactive: -2.97%
2,COc1ccccc1NC(=O)CSC1=Nc2ccccc2C2=NC(CC(=O)NCCc3ccccc3)C(=O)N12 (configuration not stated),inactive: -3.44%
3,CCOc1ccc(Nc2c(S(=O)(=O)c3ccc(C)cc3)cnc3cc(OC)c(OC)cc23)cc1,inactive: -22.9%
4,COc1ccc(CCNC(=O)c2ccc3c(c2)sc2nc(-c4ccc(C)cc4)cn23)cc1OC,inactive: 12.6%
5,CCCCC(=O)Nc1ccc2nc(SCC(=O)N3CCOCC3)sc2c1,inactive: -3.62%
6,CCOc1ccc(NC(=O)CN2CCN(CC(=O)Nc3ccc(N(CC)CC)cc3)CC2)cc1,inactive: -5.86%
7,COc1cc(NS(=O)(=O)c2ccc3[nH]c(=O)[nH]c3c2)cc(OC)c1,inactive: 4.18%
8,COc1cccc2c1Oc1ncccc1N(c1ccc(C(=O)NCc3ccccc3C)s1)C2,inactive: -21.8%
9,Cc1ccc(NC(=O)c2c(C)oc3ncn(C)c(=O)c23)cc1F,inactive: 1.81%
10,O=C(NCc1ccccc1Cl)c1ccc2c(c1)nnn2C1CCCC1,inactive: -10.5%
11,O=C(NC1(C(F)(F)F)C(=O)Nc2c1c(=O)[nH]c(=O)n2CCc1ccccc1)c1ccc(Cl)cc1 (configuration not stated),inactive: 0.999%
12,CCOc1ccc(NC(=O)c2cc(=O)c3cc(CC)ccc3o2)cc1,inactive: 5.8%
13,Cc1ccc(-c2noc(-c3ccccc3NC(=O)C3CC(=O)N(c4cccc(C)c4)C3)n2)cc1 (configuration not stated),inactive: 7.83%
14,CCc1ccc(C2=C(C)C(N3CCC(C(=O)Nc4cccc(OC)c4)CC3)=NS2(=O)=O)cc1,inactive: -0.122%
15,CCOc1ccc(NC(=O)CSc2nc(-c3cccs3)cc(C(F)(F)F)c2C#N)cc1,inactive: 5.85%
16,Oc1ccc(/C=C/c2nc(-c3ccccc3O)n(-c3ccccc3)n2)c(O)c1,inactive: -18.4%
17,CCCCCNC(=O)c1cc2c(=O)n3ccccc3nc2n1C,inactive: 20.1%
18,Clc1cccc(-n2ncc3c(NCCc4ccccc4)ncnc32)c1,inactive: -2.72%
19,CCCOc1ccc(C2C(=O)N(C3CCCCC3)CC(=O)N2CCc2ccccc2)cc1OC (configuration not stated),inactive: -18.9%
20,CN(C)C(=O)c1ccc(NC(=O)Cn2nc(-c3ccccc3)c3ccccc3c2=O)cc1,inactive: -4.92%
